The whole screen tested about 390,000 compounds, of which about 17,000 (4.4%) were called active. Inconclusive means that the source gave no clear call. Such entries were picked first, then a sample of the others. Calls come from the whole dose curve; as a rule, active = well fitted inhibition curve with a large enough effect; inconclusive = small, poorly fitted or top-dose-only effect; inactive = no such curve, though single readings can be large or run the other way. Potencies beside an inconclusive call are fits to weak or partial responses and may not hold up.
Each compound was assayed against Lysine-specific demethylase 4A (Homo sapiens) (UniProt O75164) (assay: qHTS Assay for Inhibitors of JMJD2A-Tudor Domain). Settings: AlphaScreen JMJD2A-Tudor / H3K4me3 peptide binding; series mostly up to 114 µM.
Chain of UniProt O75164 (O75164 whole entry, looked up, the tested form may be a part): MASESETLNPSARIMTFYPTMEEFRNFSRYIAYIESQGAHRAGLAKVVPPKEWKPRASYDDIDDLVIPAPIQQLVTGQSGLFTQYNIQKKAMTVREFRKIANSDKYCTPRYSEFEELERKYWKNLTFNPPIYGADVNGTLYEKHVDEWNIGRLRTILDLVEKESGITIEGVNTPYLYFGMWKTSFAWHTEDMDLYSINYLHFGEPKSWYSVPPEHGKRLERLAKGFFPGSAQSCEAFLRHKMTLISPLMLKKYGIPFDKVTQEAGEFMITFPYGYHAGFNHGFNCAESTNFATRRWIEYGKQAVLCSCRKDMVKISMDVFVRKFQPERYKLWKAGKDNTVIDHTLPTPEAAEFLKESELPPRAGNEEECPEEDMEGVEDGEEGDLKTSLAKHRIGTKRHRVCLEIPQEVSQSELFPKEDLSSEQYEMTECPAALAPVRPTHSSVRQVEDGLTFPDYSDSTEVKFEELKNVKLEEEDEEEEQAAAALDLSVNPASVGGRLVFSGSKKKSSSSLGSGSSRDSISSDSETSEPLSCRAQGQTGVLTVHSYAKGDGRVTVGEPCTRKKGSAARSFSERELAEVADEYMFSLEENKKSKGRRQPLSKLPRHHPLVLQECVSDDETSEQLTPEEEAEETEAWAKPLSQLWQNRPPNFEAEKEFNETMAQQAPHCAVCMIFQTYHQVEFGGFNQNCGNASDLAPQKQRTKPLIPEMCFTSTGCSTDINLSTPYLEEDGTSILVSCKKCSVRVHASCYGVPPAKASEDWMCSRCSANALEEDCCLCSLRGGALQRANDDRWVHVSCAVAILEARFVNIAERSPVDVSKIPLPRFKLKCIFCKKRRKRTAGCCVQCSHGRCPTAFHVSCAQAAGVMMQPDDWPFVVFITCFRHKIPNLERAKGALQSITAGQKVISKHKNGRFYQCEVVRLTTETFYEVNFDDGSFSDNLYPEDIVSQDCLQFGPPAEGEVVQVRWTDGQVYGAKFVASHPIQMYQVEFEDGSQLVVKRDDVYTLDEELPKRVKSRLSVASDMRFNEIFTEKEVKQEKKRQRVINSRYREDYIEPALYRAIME
Note: nearly all actives have a fitted effect of over 50% in size.
Potency is the fitted concentration of half-maximal effect; tags give direction and shape of the fitted curve.

SMILES | Potency
CCOC(=O)Cn1nnc(-c2ccccc2)n1 | inconclusive: 63.1 µM [inhibitor, partial curve, poor fit]
CC(C)(c1ccccc1)c1ccc(OCCN2CCCC2)cc1 | active: 20 µM
O=C(CSc1nc2ccccc2c(=O)n1Cc1ccco1)NCc1ccco1 | active: 56.2 µM
Cc1sc(N/N=C/c2ccco2)nc1-c1ccccc1 | inconclusive: 44.7 µM [inhibitor, partial curve]
Fc1ccc(CN2CCN(c3ncccn3)CC2)c(F)c1 | active: 17.8 µM
CCOc1ccc(CN2CCN(S(=O)(=O)c3ccc(Cl)cc3)CC2)cc1 | inconclusive: 44.7 µM [inhibitor, full curve]
CCOc1ccc(OCCCCn2ccnc2)cc1 | active: 20 µM
Nc1ccccc1Sc1c[nH]c2ccccc12 | inconclusive: 50.1 µM [inhibitor, partial curve]
Cc1nc(-c2ccccc2)c(-c2ccccc2)[nH]1 | inconclusive: 79.4 µM [inhibitor, single point]
CN1CCN(CC/C=C2/c3ccccc3Sc3ccc(S(=O)(=O)N(C)C)cc32)CC1 | inconclusive: 50.1 µM [inhibitor, partial curve]
O=C(CCCN1CCc2[nH]c3ccc(F)cc3c2C1)c1ccc(F)cc1 | inconclusive: 44.7 µM [inhibitor, partial curve]
c1ccc(Nc2ccccn2)cc1 | active: 22.4 µM
CCOc1ccccc1NC(=O)c1c(NCc2ccc(C)o2)sc2c1CCCCC2 | inconclusive: 79.4 µM [inhibitor, partial curve]
Cc1ccc([N+](=O)[O-])cc1-c1ccc(/C=N/NC(=O)CN2CCOCC2)o1 | inconclusive: 56.2 µM [inhibitor, partial curve]
Cc1ccccc1C(=O)NC(=S)Nc1ccccc1N1CCCC1 | active: 25.1 µM
C=C(C(=O)Nc1ccccc1)c1ccc(C)cc1 | inactive
S=C(c1ccc(-c2ccc(Br)cc2)o1)N1CCCCC1 | inconclusive: 17.8 µM [inhibitor, full curve, poor fit]
COc1ccc(Cl)cc1NC(=O)CN(C)C(=O)CCCc1c[nH]c2ccccc12 | inconclusive: 39.8 µM [inhibitor, partial curve]
COc1ccccc1N(C)S(=O)(=O)c1ccc(C(=O)Nc2nccs2)cc1 | inactive
CCOC(=O)c1cc([N+](=O)[O-])sc1NC(=O)CC | inconclusive: 31.6 µM [inhibitor, partial curve]
Cc1ccc(-n2cc(C(=O)c3ccccc3O)cn2)cc1 | inactive
CCN=c1scc(-c2ccc3c(c2)NC(=O)CO3)n1N=C1CCCC1 | inconclusive: 50.1 µM [inhibitor, partial curve]

— PubChem BioAssay AID504339 (National Center for Advancing Translational Sciences (NCATS), 2011)
